Assay results taken from PubChem BioAssay AID1030 (National Center for Advancing Translational Sciences (NCATS), 2008).
The campaign covered roughly 220,000 compounds. About 16,000 (7.3%) were called active. Inconclusive means that the source gave no clear call. Such entries were picked first, then a sample of the others. The call rests on the fitted dose curve; in most records, active means well fitted inhibition curve with a large enough effect (not every such curve was filed as active); inconclusive means small, poorly fitted or top-dose-only effect, or another doubt; inactive means no such curve, though single readings can be large or run the other way. Potencies of inconclusive entries are left out as doubtful fits.

The molecules below were run against Aldehyde dehydrogenase 1A1 (Homo sapiens) (UniProt P00352) (assay: qHTS Assay for Inhibitors of Aldehyde Dehydrogenase 1 (ALDH1A1)). Details: Purified ALDH1A1, NADH fluorescence, propionaldehyde substrate; series mostly up to 75.3 µM; activity, negative = inhibition: at the top concentration.
Potency means the concentration at half of the fitted maximal effect; tags describe the fitted curve by direction and shape.
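Wherever activity, negative = inhibition is given: plate controls were no enzyme wells and a reference inhibitor.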

UniProt P00352, sequence (P00352 whole entry, looked up): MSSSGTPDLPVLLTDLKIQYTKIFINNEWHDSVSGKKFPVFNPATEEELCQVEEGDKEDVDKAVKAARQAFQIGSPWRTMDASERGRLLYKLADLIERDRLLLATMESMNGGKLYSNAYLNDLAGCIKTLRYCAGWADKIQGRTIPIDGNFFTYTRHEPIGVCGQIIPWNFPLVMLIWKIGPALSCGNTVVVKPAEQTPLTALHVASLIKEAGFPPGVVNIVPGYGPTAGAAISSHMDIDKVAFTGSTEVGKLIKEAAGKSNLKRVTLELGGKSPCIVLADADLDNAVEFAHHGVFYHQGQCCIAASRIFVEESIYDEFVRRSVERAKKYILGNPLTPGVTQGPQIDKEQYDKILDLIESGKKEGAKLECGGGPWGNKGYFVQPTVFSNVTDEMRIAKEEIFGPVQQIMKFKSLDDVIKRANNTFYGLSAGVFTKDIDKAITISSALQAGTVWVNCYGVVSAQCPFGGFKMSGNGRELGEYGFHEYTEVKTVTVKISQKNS

Row | SMILES | activity, negative = inhibition | Potency
1 | O=C(Nc1nnc(C(F)(F)F)s1)c1ccc(N2C(=O)C3C4C=CC(C4)C3C2=O)cc1 (configuration not stated) | inactive: 0.858% | –
2 | CCOc1ccc(Br)cc1S(=O)(=O)Nc1cccc(S(=O)(=O)N(C)c2ccccc2)c1 | – | inconclusive [inhibitor, single point]
3 | COc1ccc(-c2nnc(-c3ccc(N(C)C)cc3)o2)cc1 | – | inconclusive [inhibitor, partial curve]
4 | O=C(CSc1nc(-c2ccco2)cc(C(F)(F)F)n1)N1CCN(Cc2ccccc2)CC1 | – | active: 15.8 µM
5 | CCOc1ccc2nc(NC(=O)Nc3ccccc3)sc2c1 | inactive: 1.24% | –
6 | COc1ccc(C(=O)CSc2n[nH]c(N)n2)cc1 | – | inconclusive [inhibitor, single point]
7 | COc1ccc2c(CC(=O)N3CCN(S(=O)(=O)c4cccs4)CC3)coc2c1 | – | active: 2.82 µM
8 | Cc1cc(SCC(=O)NCCN2C(=O)CSC2=O)nc2ccccc12 | – | inconclusive [inhibitor, partial curve]
9 | Cc1cccc(OCCCC(=O)NCC(=O)Nc2cccc(C)c2C)c1 | inactive: -3.86% | –
10 | CCOC(=O)c1cc(-c2csc(Nc3c(C)cc(C)cc3C)n2)on1 | – | active: 14.1 µM
11 | CC1CC2(CCCCC2)Nc2c1ccc1ccccc21 (configuration not stated) | – | inconclusive [inhibitor, partial curve]
12 | CCOC(=O)N1CCN(C(=O)CS(=O)(=O)c2cn(Cc3cccc(F)c3)c3ccccc23)CC1 | – | inconclusive [inhibitor, single point]
13 | Cc1ccc(-c2cc(C(=O)N/N=C\c3cnn(C)c3C)c3ccccc3n2)cc1C | inactive: 0.879% | –
14 | C=C1C[C@]23C[C@@]1(O)CC[C@H]2[C@@]12C=C[C@H](O)C(C)(C(=O)O1)[C@H]2[C@@H]3CC(=O)O | inactive: 9.7% | –
15 | COc1ccc(NC(=O)CN(c2ccccc2)S(=O)(=O)N(C)C)cc1OC | – | inconclusive [inhibitor, single point]
16 | CCOc1ccc(-n2c(=O)[nH]cc(C(=O)Nc3ccc(OC)c(OC)c3)c2=O)cc1 | – | inconclusive [inhibitor, single point]
17 | COc1ccc(OCCn2c(NC(=O)c3ccco3)nc3ccccc32)cc1 | inactive: -12.6% | –
18 | Cc1ccccc1NC(=O)CCSc1nnnn1-c1ccccc1 | – | active: 8.91 µM
19 | CCC(=O)Nc1cc2nn(-c3ccc(OC)cc3)nc2cc1C | – | inconclusive [inhibitor, partial curve]
20 | Cc1noc(C)c1CSc1nc2sc(C)c(C)c2c(=O)n1-c1ccccc1 | – | inconclusive [inhibitor, partial curve, poor fit]
21 | O=C(CCN1C(=O)c2ccccc2C1=O)Nc1sc2c(c1C(=O)NCC1CCCO1)CCC2 (configuration not stated) | – | inconclusive [inhibitor, partial curve]
22 | COc1ccc(-c2cc(-c3ccco3)[nH]c(=O)c2C#N)cc1OC | – | inconclusive [inhibitor, partial curve]
23 | COc1cccc(-c2nnc(SCc3cccnc3)o2)c1 | – | inconclusive [inhibitor, single point]
24 | Cc1ccc(-n2c(SCC(=O)NCC3CCCO3)nc3c(c2=O)SCC3)cc1 (configuration not stated) | – | active: 25.1 µM

Row | SMILES | activity, negative = inhibition | Potency
25 | CCC(=O)Nc1ccc(Nc2nc(Cl)nc(Nc3ccc(NC(=O)CC)cc3)n2)cc1 | inactive: 8.66% | –
26 | Nc1nnc(-c2cc3ccccc3oc2=O)s1 | – | inconclusive [inhibitor, single point]
27 | CCOC(=O)c1nn(-c2ccccc2F)c2nc(-c3ccco3)c(C#N)c(=O)n12 | – | inconclusive [inhibitor, partial curve]
28 | CC12CCC(=O)N1C(C(=O)OCC(=O)Nc1cccc(S(=O)(=O)N3CCCCCC3)c1)CS2 (configuration not stated) | – | inconclusive [inhibitor, partial curve, poor fit]
29 | COc1ccc(/C=C2/C(=O)N(CC3CCCO3)C(=S)N2C)c(OC)c1 (configuration not stated) | – | active: 12.6 µM
30 | Cc1ccc(NC(=O)c2noc3c2CC(C(C)(C)C)CC3)cc1 (configuration not stated) | inactive: 109% | –
31 | CC(C)N(CC(=O)Nc1ccc(Cl)cc1C(F)(F)F)C(=O)CCl | – | active: 1.78 µM
32 | CS(=O)(=O)c1ccc(Cl)c(NC(=O)CCl)c1 | – | active: 3.16 µM
33 | O=C(c1ccc(Br)o1)N(Cc1ccccc1)c1ccccn1 | – | inconclusive [inhibitor, single point]
34 | Cc1ccc2[nH]c3c(c2c1)CCc1cn[nH]c1-3 | – | inconclusive [inhibitor, single point]
35 | CCCc1nc(SCC(=O)Nc2ccc(S(=O)(=O)N(C)C)cc2)c2ccccc2n1 | – | inconclusive [inhibitor, partial curve]
36 | COc1ccc2cc(C(=O)C3CCCN(Cc4cccc(C)n4)C3)ccc2c1 (configuration not stated) | – | inconclusive [inhibitor, partial curve]
37 | O=C(CSc1nnc(CNC(=O)c2cccs2)o1)NC1CCCC1 | inactive: -2.49% | –
38 | CCN(CC)S(=O)(=O)c1ccc(Cl)c(NC(=O)COC(=O)c2cccn2C)c1 | – | inconclusive [inhibitor, single point]
39 | O=C(Nc1cccc(C(F)(F)F)c1)C(Sc1cccc[n+]1[O-])c1ccccc1 (configuration not stated) | inactive: -3.68% | –
40 | COc1ccccc1CNc1ncncc1-c1cccnc1 | – | inconclusive [inhibitor, single point]
41 | Cc1cccc(N=Cc2c(O)cc(C)oc2=O)c1 | – | inconclusive [inhibitor, single point]
42 | COc1ccc(NC(=S)NCCc2ccc(S(N)(=O)=O)cc2)c(OC)c1 | – | active: 22.4 µM
43 | CCNc1ncc2nc(-c3ccc(Cl)cc3)c(=O)n(Cc3cccs3)c2n1 | – | inconclusive [inhibitor, partial curve]
44 | COc1cccc(N2C(=O)C(CC(=O)Nc3ccc(F)cc3)N(C3CCCCC3)C2=O)c1 (configuration not stated) | inactive: 7.79% | –
45 | CCOC(=O)c1c(C)oc2ccc(OCC(=O)C(C)(C)C)cc12 | – | inconclusive [inhibitor, partial curve]
46 | CCCCCCCCCCCCCCCC[n+]1cccc(C(=O)N(CC)CC)c1 | – | inconclusive [inhibitor, single point]
47 | CC1(C(=O)CSc2ncn[nH]2)CCC(=O)O1 (configuration not stated) | – | inconclusive [inhibitor, single point]
48 | CC(=O)Cc1ccccc1OC(=O)c1ccco1 | inactive: 8.97% | –

Row | SMILES | activity, negative = inhibition | Potency
49 | Cc1cc(NCCO)nc(N2CCOCC2)n1 | – | inconclusive [inhibitor, single point]
50 | Cn1nc(C(F)(F)F)cc1-c1ccc(/C=C(\C#N)C(=O)c2ccccc2)s1 | – | inconclusive [inhibitor, single point]
51 | C=CCn1c(SCC(=O)Nc2ccc(C(=O)OC(C)C)cc2)nnc1-c1cccs1 | – | inconclusive [inhibitor, full curve]
52 | CCOC(=O)CNC(=O)O[C@@H]1Cc2cc(OC)ccc2O[C@H]1c1cccc(OC)c1 | inactive: 4.75% | –
53 | Cc1c(C(=O)N2CCC(C)CC2)sc2ncnc(N3CCN(c4ccccc4)CC3)c12 | – | inconclusive [inhibitor, partial curve]
54 | CC1(C(=O)O)NCCc2cc(O)c(O)cc21 (configuration not stated) | – | inconclusive [inhibitor, single point]
55 | COc1ccc(-c2noc(CSc3nc(N)c(-c4ccccc4)c(=O)[nH]3)n2)cc1 | – | inconclusive [inhibitor, single point]
56 | Cl/C(=C\n1cncn1)c1ccc(Cl)cc1Cl | – | inconclusive [inhibitor, single point]
57 | Cc1cc(C)cc(NC(=O)CC23CC4CC(C2)CC(n2nnc(C)n2)(C4)C3)c1 | – | inconclusive [inhibitor, single point]
58 | Cc1ccc(-c2ccccc2)n1-c1ccc(C(=O)O)cc1 | – | active: 25.1 µM
59 | CCc1ccc2[nH]c(=O)c(C(c3nnnn3CCOC)N3CCN(c4ccccc4)CC3)cc2c1 (configuration not stated) | – | active: 11.2 µM
60 | O=C1C=CC2=C3c4cc(O)c(O)cc4C[C@]3(O)COC2=C1 | inactive: 4.66% | –
61 | Cc1ccc([N+](=O)[O-])cc1NC(=O)C(C)N1CCCCC1 (configuration not stated) | – | inconclusive [inhibitor, single point]
62 | Cc1ccc(C(=O)N2C(=S)C(c3ccc(F)cc3)=NC23CCN(C)CC3)cc1 | – | inconclusive [inhibitor, single point]
63 | CN1[C@@H](CC(=O)c2ccccc2)CCC[C@@H]1C[C@@H](O)c1ccccc1 | inactive: -3.56% [at 20.9 µM] | –
64 | Nc1c(C(=O)NCc2ccccc2)nnn1Cc1ccc(F)cc1 | inactive: 3.54% | –
65 | O=C(Nc1ccc2oc(=O)ccc2c1)c1ccc(-c2ccc(Cl)cc2)o1 | – | active: 8.91 µM
66 | O=c1c2cc(Cl)ccc2[nH]c(=S)n1Cc1cccs1 | – | inconclusive [inhibitor, full curve]
67 | CC(C)CC(=O)NC(=S)Nc1ccc(N2CCOCC2)c(Cl)c1 | inactive: -11.8% | –
68 | COc1ccc(Cn2cc3c(-c4ccc(F)cc4)nnc-3c3cc(OC)c(OC)cc32)cc1 | – | inconclusive [inhibitor, partial curve]
69 | O=C(O)COc1ccc(/C=N/n2cnc3scc(-c4cccs4)c3c2=O)cc1 | – | active: 7.08 µM
70 | COc1ccc(CCn2c(-c3cc([N+](=O)[O-])cc([N+](=O)[O-])c3)nc3nc4ccccc4nc32)cc1OC | inactive: 18.7% | –
71 | CCCOC(=O)c1cccc(NC(=O)C(C)(C)C)c1 | – | inconclusive [inhibitor, single point]
72 | O=C(COC(=O)c1ccccc1Nc1ccccc1)NCc1ccccc1 | – | inconclusive [inhibitor, single point]
